{"source": "the supplement of paper PMC8728848", "binders": {"B1": {"name": "LFA (Limax flavus) (protein)", "chain": "MSVLFLAASFLLLASFELVAAQGCPRQDPGDWIVIQRRLNADVNFYRGWADYKHGFGDLRCNFWLGNEKIHQLTSHGRYKLRVEFTFNNKSYFAEYSTFKILGEADKYKLQVGGYSGNAGDALTFHNGMAFSTNDRDNDADSIDCAKVYHGAWWYKTCHESNLNGKWGSKKYGEGLNWKAKTTFTATATSSLLKIKALK"}}, "assay_in_all_cases": "glycan array binding signal (z-score within array); higher = stronger binding", "conditions_in_all_cases": "glycan notation: IUPAC condensed, linker removed", "key": {"[1]": {"biological_target": "GlcNAc(b1-3)Gal(b1-4)GlcNAc(b1-3)Gal(b1-4)GlcNAc(b1-3)Gal(b1-4)GlcNAc(b1-3)Gal(b1-4)GlcNAc(b1-2)[GlcNAc(b1-3)Gal(b1-4)GlcNAc(b1-3)Gal(b1-4)GlcNAc(b1-3)Gal(b1-4)GlcNAc(b1-3)Gal(b1-4)GlcNAc(b1-6)]Man(a1-6)[GlcNAc(b1-3)Gal(b1-4)GlcNAc(b1-3)Gal(b1-4)GlcNAc(b1-3)Gal(b1-4)GlcNAc(b1-3)Gal(b1-4)GlcNAc(b1-2)Man(a1-3)]Man(b1-4)GlcNAc(b1-4)[Fuc(a1-6)]GlcNAc", "procedure,_shortened": "(§1)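 Glycan array data were curated from 3228 arrays in the Consortium for Functional Glycomics database and kept only where the protein sequence was available. Glycan names were converted to IUPAC-condensed notation, and columns mapping to the same glycan were averaged. The binding signal is a within-array Z-score, averaged across arrays of the same protein sequence at different concentrations or buffers and across linkers. Negative Z-scores can be read as non-binding.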"}, "[2]": {"biological_target": "GlcNAc(b1-3)Gal(b1-4)GlcNAc(b1-3)Gal(b1-4)GlcNAc(b1-3)GalNAc", "procedure,_shortened": "as §1"}, "[3]": {"biological_target": "GlcNAc(b1-3)Gal(b1-4)GlcNAc(b1-3)GalNAc", "procedure,_shortened": "as §1"}, "[4]": {"biological_target": "GlcNAc(b1-3)Gal(b1-4)GlcNAc(b1-3)[GlcNAc(b1-3)Gal(b1-4)GlcNAc(b1-3)]GalNAc", "procedure,_shortened": "as §1"}, "[5]": {"biological_target": "GlcNAc(b1-3)Gal(b1-4)GlcNAc(b1-6)[Gal(b1-3)]GalNAc", "procedure,_shortened": "as §1"}, "[6]": {"biological_target": "GlcNAc(b1-3)Gal(b1-4)GlcNAc(b1-6)[GlcNAc(b1-3)Gal(b1-3)]GalNAc", "procedure,_shortened": "as §1"}, "[7]": {"biological_target": "GlcNAc(b1-3)Gal(b1-4)GlcNAc(b1-6)[GlcNAc(b1-3)]Gal(b1-4)GlcNAc", "procedure,_shortened": "as §1"}, "GlcNAc(b1-3)GalNAc": {"biological_target": "GlcNAc(b1-3)GalNAc", "procedure,_shortened": "as §1"}, "GlcNAc(b1-3)Man": {"biological_target": "GlcNAc(b1-3)Man", "procedure,_shortened": "as §1"}, "[8]": {"biological_target": "GlcNAc(b1-3)[GlcNAc(b1-4)][GlcNAc(b1-6)]GlcNAc", "procedure,_shortened": "as §1"}, "[9]": {"biological_target": "GlcNAc(b1-3)[GlcNAc(b1-6)]Gal(b1-4)GlcNAc", "procedure,_shortened": "as §1"}, "[10]": {"biological_target": "GlcNAc(b1-3)[GlcNAc(b1-6)]GalNAc", "procedure,_shortened": "as §1"}, "[11]": {"biological_target": "GlcNAc(b1-4)Gal(b1-4)GlcNAc", "procedure,_shortened": "as §1"}, "GlcNAc(b1-4)GlcNAc": {"biological_target": "GlcNAc(b1-4)GlcNAc", "procedure,_shortened": "as §1"}, "[12]": {"biological_target": "GlcNAc(b1-4)GlcNAc(b1-4)GlcNAc", "procedure,_shortened": "as §1"}, "[13]": {"biological_target": "GlcNAc(b1-4)GlcNAc(b1-4)GlcNAc(b1-4)GlcNAc(b1-4)GlcNAc", "procedure,_shortened": "as §1"}, "[14]": {"biological_target": "GlcNAc(b1-4)GlcNAc(b1-4)GlcNAc(b1-4)GlcNAc(b1-4)GlcNAc(b1-4)GlcNAc", "procedure,_shortened": "as §1"}, "[15]": {"biological_target": "GlcNAc(b1-4)[GlcNAc(b1-6)]GalNAc", "procedure,_shortened": "as §1"}, "[16]": {"biological_target": "GlcNAc(b1-6)Gal(b1-4)GlcNAc", "procedure,_shortened": "as §1"}, "GlcNAc(b1-6)GalNAc": {"biological_target": "GlcNAc(b1-6)GalNAc", "procedure,_shortened": "as §1"}, "[17]": {"biological_target": "GlcNAc6S(b1-3)Gal(b1-4)GlcNAc", "procedure,_shortened": "as §1"}, "Kdn(a2-3)Gal(b1-3)GalNAc": {"biological_target": "Kdn(a2-3)Gal(b1-3)GalNAc", "procedure,_shortened": "as §1"}, "Kdn(a2-3)Gal(b1-3)GlcNAc": {"biological_target": "Kdn(a2-3)Gal(b1-3)GlcNAc", "procedure,_shortened": "as §1"}, "Kdn(a2-3)Gal(b1-4)Glc": {"biological_target": "Kdn(a2-3)Gal(b1-4)Glc", "procedure,_shortened": "as §1"}, "Kdn(a2-3)Gal(b1-4)GlcNAc": {"biological_target": "Kdn(a2-3)Gal(b1-4)GlcNAc", "procedure,_shortened": "as §1"}, "[18]": {"biological_target": "Kdn(a2-3)Gal(b1-4)[Fuc(a1-3)]GlcNAc", "procedure,_shortened": "as §1"}, "Kdn(a2-6)Gal(b1-4)GlcNAc": {"biological_target": "Kdn(a2-6)Gal(b1-4)GlcNAc", "procedure,_shortened": "as §1"}, "[19]": {"biological_target": "Man(a1-2)Man(a1-2)Man(a1-3)Man", "procedure,_shortened": "as §1"}, "[20]": {"biological_target": "Man(a1-2)Man(a1-2)Man(a1-6)[Man(a1-3)]Man", "procedure,_shortened": "as §1"}, "Man(a1-2)Man(a1-3)Man": {"biological_target": "Man(a1-2)Man(a1-3)Man", "procedure,_shortened": "as §1"}, "[21]": {"biological_target": "Man(a1-2)Man(a1-3)[Man(a1-2)Man(a1-6)]Man", "procedure,_shortened": "as §1"}, "[22]": {"biological_target": "Man(a1-2)Man(a1-3)[Man(a1-2)Man(a1-6)]Man(a1-6)[Man(a1-2)Man(a1-2)Man(a1-3)]Man", "procedure,_shortened": "as §1"}, "[23]": {"biological_target": "Man(a1-2)Man(a1-3)[Man(a1-2)Man(a1-6)]Man(a1-6)[Man(a1-2)Man(a1-2)Man(a1-3)]Man(b1-4)GlcNAc(b1-4)GlcNAc", "procedure,_shortened": "as §1"}, "[24]": {"biological_target": "Man(a1-2)Man(a1-3)[Man(a1-6)]Man(a1-6)[Man(a1-2)Man(a1-3)]Man(b1-4)GlcNAc(b1-4)GlcNAc", "procedure,_shortened": "as §1"}, "[25]": {"biological_target": "Man(a1-2)Man(a1-6)[Man(a1-3)]Man(a1-6)[Man(a1-2)Man(a1-2)Man(a1-3)]Man", "procedure,_shortened": "as §1"}, "[26]": {"biological_target": "Man(a1-2)Man(a1-6)[Man(a1-3)]Man(a1-6)[Man(a1-2)Man(a1-2)Man(a1-3)]Man(b1-4)GlcNAc(b1-4)GlcNAc", "procedure,_shortened": "as §1"}, "Man(a1-3)[Man(a1-6)]Man": {"biological_target": "Man(a1-3)[Man(a1-6)]Man", "procedure,_shortened": "as §1"}, "[27]": {"biological_target": "Man(a1-3)[Man(a1-6)]Man(a1-6)[Man(a1-2)Man(a1-3)]Man(b1-4)GlcNAc(b1-4)GlcNAc", "procedure,_shortened": "as §1"}, "[28]": {"biological_target": "Man(a1-3)[Man(a1-6)]Man(a1-6)[Man(a1-3)]Man", "procedure,_shortened": "as §1"}, "[29]": {"biological_target": "Man(a1-3)[Man(a1-6)]Man(a1-6)[Man(a1-3)]Man(b1-4)GlcNAc(b1-4)GlcNAc", "procedure,_shortened": "as §1"}, "[30]": {"biological_target": "Man(a1-3)[Man(a1-6)]Man(b1-4)GlcNAc(b1-4)GlcNAc", "procedure,_shortened": "as §1"}, "[31]": {"biological_target": "Man(a1-3)[Man(a1-6)]Man(b1-4)GlcNAc(b1-4)[Fuc(a1-6)]GlcNAc", "procedure,_shortened": "as §1"}, "Man(a1-6)Man": {"biological_target": "Man(a1-6)Man", "procedure,_shortened": "as §1"}, "Man(b1-4)GlcNAc": {"biological_target": "Man(b1-4)GlcNAc", "procedure,_shortened": "as §1"}, "MurNAc(b1-4)GlcNAc": {"biological_target": "MurNAc(b1-4)GlcNAc", "procedure,_shortened": "as §1"}}, "note": "The other results are listed elsewhere or left out.", "data": [{"binder": "B1", "values": [{"measurement": "glycan array binding signal (z-score)", "setting": "[1]", "result": 1.75}, {"measurement": "glycan array binding signal (z-score)", "setting": "[2]", "result": -0.094}, {"measurement": "glycan array binding signal (z-score)", "setting": "[3]", "result": -0.213}, {"measurement": "glycan array binding signal (z-score)", "setting": "[4]", "result": -0.336}, {"measurement": "glycan array binding signal (z-score)", "setting": "[5]", "result": -0.288}, {"measurement": "glycan array binding signal (z-score)", "setting": "[6]", "result": -0.285}, {"measurement": "glycan array binding signal (z-score)", "setting": "[7]", "result": -0.245}, {"measurement": "glycan array binding signal (z-score)", "setting": "GlcNAc(b1-3)GalNAc", "result": 0.047}, {"measurement": "glycan array binding signal (z-score)", "setting": "GlcNAc(b1-3)Man", "result": -0.321}, {"measurement": "glycan array binding signal (z-score)", "setting": "[8]", "result": -0.405}, {"measurement": "glycan array binding signal (z-score)", "setting": "[9]", "result": -0.31}, {"measurement": "glycan array binding signal (z-score)", "setting": "[10]", "result": -0.297}, {"measurement": "glycan array binding signal (z-score)", "setting": "[11]", "result": -0.422}, {"measurement": "glycan array binding signal (z-score)", "setting": "GlcNAc(b1-4)GlcNAc", "result": -0.267}, {"measurement": "glycan array binding signal (z-score)", "setting": "[12]", "result": -0.226}, {"measurement": "glycan array binding signal (z-score)", "setting": "[13]", "result": 2.87}, {"measurement": "glycan array binding signal (z-score)", "setting": "[14]", "result": 5.81}, {"measurement": "glycan array binding signal (z-score)", "setting": "[15]", "result": -0.317}, {"measurement": "glycan array binding signal (z-score)", "setting": "[16]", "result": -0.34}, {"measurement": "glycan array binding signal (z-score)", "setting": "GlcNAc(b1-6)GalNAc", "result": -0.268}, {"measurement": "glycan array binding signal (z-score)", "setting": "[17]", "result": -0.265}, {"measurement": "glycan array binding signal (z-score)", "setting": "Kdn(a2-3)Gal(b1-3)GalNAc", "result": -0.121}, {"measurement": "glycan array binding signal (z-score)", "setting": "Kdn(a2-3)Gal(b1-3)GlcNAc", "result": -0.168}, {"measurement": "glycan array binding signal (z-score)", "setting": "Kdn(a2-3)Gal(b1-4)Glc", "result": -0.303}, {"measurement": "glycan array binding signal (z-score)", "setting": "Kdn(a2-3)Gal(b1-4)GlcNAc", "result": -0.189}, {"measurement": "glycan array binding signal (z-score)", "setting": "[18]", "result": -0.292}, {"measurement": "glycan array binding signal (z-score)", "setting": "Kdn(a2-6)Gal(b1-4)GlcNAc", "result": -0.324}, {"measurement": "glycan array binding signal (z-score)", "setting": "[19]", "result": -0.233}, {"measurement": "glycan array binding signal (z-score)", "setting": "[20]", "result": -0.079}, {"measurement": "glycan array binding signal (z-score)", "setting": "Man(a1-2)Man(a1-3)Man", "result": -0.005}, {"measurement": "glycan array binding signal (z-score)", "setting": "[21]", "result": -0.037}, {"measurement": "glycan array binding signal (z-score)", "setting": "[22]", "result": -0.12}, {"measurement": "glycan array binding signal (z-score)", "setting": "[23]", "result": 1.15}, {"measurement": "glycan array binding signal (z-score)", "setting": "[24]", "result": -0.068}, {"measurement": "glycan array binding signal (z-score)", "setting": "[25]", "result": -0.248}, {"measurement": "glycan array binding signal (z-score)", "setting": "[26]", "result": -0.19}, {"measurement": "glycan array binding signal (z-score)", "setting": "Man(a1-3)[Man(a1-6)]Man", "result": -0.208}, {"measurement": "glycan array binding signal (z-score)", "setting": "[27]", "result": 3.26}, {"measurement": "glycan array binding signal (z-score)", "setting": "[28]", "result": -0.265}, {"measurement": "glycan array binding signal (z-score)", "setting": "[29]", "result": -0.266}, {"measurement": "glycan array binding signal (z-score)", "setting": "[30]", "result": 0.126}, {"measurement": "glycan array binding signal (z-score)", "setting": "[31]", "result": 0.24}, {"measurement": "glycan array binding signal (z-score)", "setting": "Man(a1-6)Man", "result": -0.18}, {"measurement": "glycan array binding signal (z-score)", "setting": "Man(b1-4)GlcNAc", "result": 0.075}, {"measurement": "glycan array binding signal (z-score)", "setting": "MurNAc(b1-4)GlcNAc", "result": -0.363}]}]}
